Values joined by “and” are separate entries in the source; they are usually repeats but may differ in a detail not shown here. Identical values can stand only once. The shares of active, inactive and inconclusive entries below differ from those in the screen. For some of these results: A potency beside an inconclusive call is a rough fit, not a confirmed value. Where a structure was tested more than once in an assay, its records may differ in their call. Active and inactive are the calls of the source. Unless noted, the call rests on the fitted dose curve; in most records, active means well fitted curve in the direction sought with a large enough effect in the repeat runs; inconclusive means weak or mixed curves; inactive means no such curve, though single readings can be large; an effect the other way counts as inactive or inconclusive.
Legend:
[1] = biological target: Aryl hydrocarbon receptor (Homo sapiens) (UniProt P35869); test: qHTS assay to identify small molecule that activate the aryl hydrocarbon receptor (AhR) signaling pathway (AID 743085); further: nearly all actives have a fitted effect of over 15% in size; further: potency means the concentration at half of the fitted maximal effect
Chain of UniProt P35869 (P35869 whole entry, looked up): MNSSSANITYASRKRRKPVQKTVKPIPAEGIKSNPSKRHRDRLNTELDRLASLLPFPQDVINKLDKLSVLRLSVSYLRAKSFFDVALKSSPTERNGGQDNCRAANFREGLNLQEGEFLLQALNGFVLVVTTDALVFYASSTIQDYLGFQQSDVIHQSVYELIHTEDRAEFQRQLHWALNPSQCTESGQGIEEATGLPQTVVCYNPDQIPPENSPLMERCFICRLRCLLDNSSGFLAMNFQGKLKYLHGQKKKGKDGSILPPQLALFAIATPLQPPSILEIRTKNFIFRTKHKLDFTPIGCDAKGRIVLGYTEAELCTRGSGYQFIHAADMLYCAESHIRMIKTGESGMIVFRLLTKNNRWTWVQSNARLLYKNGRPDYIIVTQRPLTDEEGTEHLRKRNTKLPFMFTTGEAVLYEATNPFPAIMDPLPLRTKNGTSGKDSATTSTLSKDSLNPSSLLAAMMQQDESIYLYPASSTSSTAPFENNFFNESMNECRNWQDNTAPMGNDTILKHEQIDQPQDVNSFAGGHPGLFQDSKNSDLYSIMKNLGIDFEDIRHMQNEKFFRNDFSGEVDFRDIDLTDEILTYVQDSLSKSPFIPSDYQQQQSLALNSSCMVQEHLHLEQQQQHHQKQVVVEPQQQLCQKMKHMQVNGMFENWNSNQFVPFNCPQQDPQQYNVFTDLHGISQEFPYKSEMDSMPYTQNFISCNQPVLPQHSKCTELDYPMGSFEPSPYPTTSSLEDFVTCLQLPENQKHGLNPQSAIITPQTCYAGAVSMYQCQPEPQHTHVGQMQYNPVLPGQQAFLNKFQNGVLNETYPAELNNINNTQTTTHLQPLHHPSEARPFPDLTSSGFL
Outline: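 Cell line HG2L7.5c1 (human hepatoma, 20× DRE-luc). Plated, 5 h 37C, compound/DMSO added, 24 h 37C. CellTiter-Fluor 30 min 37C → fluorescence; then ONE-Glo 30 min RT → luminescence.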

[2] = biological target: Peroxisome proliferator-activated receptor gamma (Homo sapiens) (UniProt P37231); test: qHTS assay to identify small molecule antagonists of the peroxisome proliferator-activated receptor gamma (PPARg) signaling pathway (AID 743191; calls by dose curve; further: nearly all actives have a fitted effect of over 30% in size; further: potency means the concentration at half of the fitted maximal effect; on ratio activity, negative = inhibition: on the % scale 0 is the no-effect control and ±100 the full control effect); details: HEK293H PPARg-UAS-bla, beta-lactamase ratio, antagonist, 17 h; ratio activity, negative = inhibition: at 62.6 µM (top of the series) unless noted
Chain of UniProt P37231 (P37231 whole entry, looked up): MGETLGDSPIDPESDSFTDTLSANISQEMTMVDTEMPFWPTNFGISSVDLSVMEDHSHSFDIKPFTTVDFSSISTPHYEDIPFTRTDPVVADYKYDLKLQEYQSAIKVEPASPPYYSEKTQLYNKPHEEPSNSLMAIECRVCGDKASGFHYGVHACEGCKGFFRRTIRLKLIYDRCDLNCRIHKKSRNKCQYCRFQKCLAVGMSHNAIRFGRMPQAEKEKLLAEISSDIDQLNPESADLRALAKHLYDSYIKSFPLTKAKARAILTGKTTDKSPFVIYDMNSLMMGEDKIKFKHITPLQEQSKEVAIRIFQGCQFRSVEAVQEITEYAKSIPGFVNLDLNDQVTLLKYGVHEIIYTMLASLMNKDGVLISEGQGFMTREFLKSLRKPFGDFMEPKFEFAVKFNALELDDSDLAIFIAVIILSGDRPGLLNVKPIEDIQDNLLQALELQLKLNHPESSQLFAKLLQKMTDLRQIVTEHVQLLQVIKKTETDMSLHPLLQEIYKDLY
Outline: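 GeneBLAzer PPARg UAS-bla HEK293H cells carrying a UAS-driven beta-lactamase reporter were plated at 3000 cells/well, preincubated 5 h at 37C, then given compound for 17 h at 37C; LiveBLAzer B/G FRET substrate was read after 1 h at room temperature.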

[3] = qHTS assay for small molecule agonists of the antioxidant response element (ARE) signaling pathway (AID 743202; active means well fitted activation curve with a large enough effect in the signal ratio in the repeat runs, not every such curve was filed as active; inconclusive means weak or mixed curves, or effect the other way; inactive means no such curve, though single readings can be large or run the other way; the % refers to the signal ratio; further: potency means the concentration at half of the fitted maximal effect; on activation: on the % scale 0 is the no-effect control and ±100 the full control effect); details: HepG2 ARE-bla reporter, beta-lactamase FRET, 16 h; activation: at 73.3 µM (top of the series) unless noted
Outline: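 Read-out: LiveBLAzer B/G FRET substrate fluorescence after 2 h at room temperature, following 16 h compound treatment at 37 C of HepG2 cells carrying an ARE-driven beta-lactamase reporter.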

[4] = biological target: Bile acid receptor (Homo sapiens) (UniProt Q96RI1); test: qHTS assay to identify small molecule agonists of the farnesoid-X-receptor (FXR) signaling pathway (AID 743220; active means well fitted activation curve with a large enough effect in the signal ratio in the repeat runs, not every such curve was filed as active; inconclusive means weak or mixed curves, or effect the other way; the % refers to the signal ratio; further: potency means the concentration at half of the fitted maximal effect); details: HEK293T FXR-UAS-bla, beta-lactamase FRET ratio, 16 h; activation: at 62.6 µM (top of the series) unless noted
Chain of UniProt Q96RI1 (Q96RI1 whole entry, looked up): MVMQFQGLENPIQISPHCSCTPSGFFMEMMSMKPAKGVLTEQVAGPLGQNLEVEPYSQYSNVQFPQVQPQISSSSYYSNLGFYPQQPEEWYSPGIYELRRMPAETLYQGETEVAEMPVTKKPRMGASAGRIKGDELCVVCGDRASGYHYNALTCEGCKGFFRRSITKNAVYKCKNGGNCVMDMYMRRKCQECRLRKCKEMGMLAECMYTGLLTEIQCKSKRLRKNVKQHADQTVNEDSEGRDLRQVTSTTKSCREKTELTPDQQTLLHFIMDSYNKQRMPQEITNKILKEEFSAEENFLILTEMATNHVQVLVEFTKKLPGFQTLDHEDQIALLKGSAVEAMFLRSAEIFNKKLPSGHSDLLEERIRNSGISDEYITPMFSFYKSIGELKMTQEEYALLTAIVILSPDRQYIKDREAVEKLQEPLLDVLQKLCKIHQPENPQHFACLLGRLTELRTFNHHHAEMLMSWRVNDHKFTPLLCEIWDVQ
Outline: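 Beta-lactamase reporter under UAS control in GeneBLAzer FXR HEK 293T cells (5000/well) measured with LiveBLAzer FRET substrate after 2 h at room temperature. Compound exposure lasted 16 h at 37C.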

[5] = qHTS assay to identify small molecule antagonists of the peroxisome proliferator-activated receptor delta (PPARd) signaling pathway - cell viability counter screen (AID 743213); details: PPARd-bla HEK293H viability, CellTiter-Glo luminescence, 17 h; viability change, negative = cytotoxic: at 62 µM (top of the series) unless noted; further: nearly all actives have a fitted effect of over 50% in size; further: potency means the concentration at half of the fitted maximal effect
Outline: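 Cytotoxicity counter screen: CellTiter-Glo luminescence read 30 min after addition, in the same wells as the reporter assay. There, PPARd UAS-bla HEK293H cells (3000/well) were treated 17 h at 37 C with compound and 300 nM L165041.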

[6] = biological target: Peroxisome proliferator-activated receptor delta (Homo sapiens) (UniProt Q03181); test: qHTS assay to identify small molecule antagonists of the peroxisome proliferator-activated receptor delta (PPARd) signaling pathway (AID 743215; active means well fitted inhibition curve with a large enough effect in the signal ratio in the repeat runs, not every such curve was filed as active; inconclusive means weak or mixed curves, or effect the other way; inactive means no such curve, though single readings can be large or run the other way; the % refers to the signal ratio;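 further: cells stimulated with agonist L165041 at 300 nM final during compound exposure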; further: potency means the concentration at half of the fitted maximal effect; on ratio activity, negative = inhibition: on the % scale 0 is the no-effect control and ±100 the full control effect); details: HEK293H PPARd-UAS-bla, beta-lactamase FRET ratio, antagonist, 17 h; ratio activity, negative = inhibition: at 62 µM (top of the series) unless noted
Chain of UniProt Q03181 (Q03181 whole entry, looked up): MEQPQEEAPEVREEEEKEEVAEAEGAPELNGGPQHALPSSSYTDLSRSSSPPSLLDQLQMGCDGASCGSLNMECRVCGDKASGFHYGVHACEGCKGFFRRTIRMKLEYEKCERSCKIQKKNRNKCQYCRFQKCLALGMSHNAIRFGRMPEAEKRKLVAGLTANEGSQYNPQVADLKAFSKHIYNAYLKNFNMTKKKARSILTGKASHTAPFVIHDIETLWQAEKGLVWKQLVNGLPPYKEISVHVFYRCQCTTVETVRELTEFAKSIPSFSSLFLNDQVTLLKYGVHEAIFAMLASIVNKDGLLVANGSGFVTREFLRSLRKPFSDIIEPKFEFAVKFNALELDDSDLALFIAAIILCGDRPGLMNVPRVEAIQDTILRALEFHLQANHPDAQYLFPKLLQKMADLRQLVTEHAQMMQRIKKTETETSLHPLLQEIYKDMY
Outline: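 Inhibition of L165041-driven (300 nM final) PPARd signaling is scored in HEK293H UAS-bla cells. Exposure lasts 17 h at 37 C; beta-lactamase activity is then read by FRET substrate fluorescence after 2 h at room temperature.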

[7] = qHTS assay for small molecule activators of the heat shock response signaling pathway - cell viability counter screen (AID 743209); details: HSE-bla HeLa viability, CellTiter-Glo luminescence, 5 h; activity change, negative = cytotoxicity: at 62.6 µM (top of the series) unless noted; further: nearly all actives have a fitted effect of over 50% in size; further: potency means the concentration at half of the fitted maximal effect
Outline: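 First, HSE-bla HeLa cells were seeded at 1500 cells/well and kept overnight at 37 C. Next, compounds were pinned in and incubated 5 h. After the FRET substrate step, CellTiter-Glo was added and luminescence read 30 min later.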

[8] = qHTS assay to identify small molecule agonists of the peroxisome proliferator-activated receptor delta (PPARd) signaling pathway - cell viability counter screen (AID 743211); details: PPARd-bla HEK293H viability, CellTiter-Glo luminescence, 17 h; activity change, negative = cytotoxicity: at 62.6 µM (top of the series) unless noted; further: on the % scale 0 is the no-effect control and ±100 the full control effect; nearly all actives have a fitted effect of over 55% in size
Outline: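 HEK293H PPARd-bla, 3000 cells/well; 5 h preincubation 37C/5% CO2; cpd in DMSO, 17 h 37C; B/G FRET substrate 2 h RT; CellTiter-Glo 30 min RT, luminescence.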

[9] = biological target: Vitamin D3 receptor (Homo sapiens) (UniProt P11473); test: qHTS assay to identify small molecule antagonists of the vitamin D receptor (VDR) signaling pathway (AID 743223; active means well fitted inhibition curve with a large enough effect in the signal ratio in the repeat runs, not every such curve was filed as active; inconclusive means weak or mixed curves, or effect the other way; inactive means no such curve, though single readings can be large or run the other way; the % refers to the signal ratio; further: potency means the concentration at half of the fitted maximal effect); details: VDR-UAS-bla HEK293T, beta-lactamase FRET ratio, 16 h; activity change, negative = inhibition: at 61 µM (top of the series) unless noted
Chain of UniProt P11473 (P11473 whole entry, looked up): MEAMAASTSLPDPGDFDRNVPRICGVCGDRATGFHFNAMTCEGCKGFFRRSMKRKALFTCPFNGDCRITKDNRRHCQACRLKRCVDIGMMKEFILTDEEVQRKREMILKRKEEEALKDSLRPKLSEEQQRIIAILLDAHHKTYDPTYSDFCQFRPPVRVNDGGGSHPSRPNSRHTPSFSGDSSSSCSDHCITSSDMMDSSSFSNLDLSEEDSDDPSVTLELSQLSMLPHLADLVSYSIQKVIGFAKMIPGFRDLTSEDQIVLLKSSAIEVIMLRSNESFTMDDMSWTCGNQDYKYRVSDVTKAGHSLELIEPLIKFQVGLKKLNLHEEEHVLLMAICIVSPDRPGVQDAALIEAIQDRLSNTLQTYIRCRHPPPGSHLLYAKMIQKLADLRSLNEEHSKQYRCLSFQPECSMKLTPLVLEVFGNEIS
Outline: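 Antagonist mode uses 1alpha,25-dihydroxyvitamin D3 at 3 nM final as stimulus. VDR-bla cells receive compounds in DMSO, incubate 16 h at 37C, then a beta-lactamase FRET substrate for 2 h at room temperature before fluorescence measurement.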

[10] = qHTS assay to identify small molecule antagonists of the farnesoid-X-receptor (FXR) signaling pathway - cell viability counter screen (AID 743221; active means well fitted cell-killing curve with a large enough effect in the repeat runs, not every such curve was filed as active; inconclusive means weak or mixed curves, or effect the other way; inactive means no such curve, though single readings can be large or run the other way; further: nearly all actives have a fitted effect of over 50% in size; further: potency means the concentration at half of the fitted maximal effect); details: FXR-bla HEK293T viability, CellTiter-Glo luminescence, 16 h; activity change, negative = cytotoxicity: at 62.6 µM (top of the series) unless noted
Outline: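 Luminescence from CellTiter-Glo measures cytotoxicity in GeneBLAzer FXR-UAS-bla HEK 293T cells. Cells were exposed to compounds with 50 uM chenodeoxycholic acid (final) for 16 h at 37 C, in wells also used for the reporter readout.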

[11] = qHTS assay for small molecule activators of the heat shock response signaling pathway (AID 743210; active means well fitted activation curve with a large enough effect in the signal ratio in the repeat runs, with a control signal flat, not every such curve was filed as active; inconclusive means weak or mixed curves; the % refers to the signal ratio; further: potency means the concentration at half of the fitted maximal effect); details: HeLa HSE-bla reporter, beta-lactamase ratio, 5 h; activation: at 62.6 µM (top of the series) unless noted
Outline: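 HSE-bla HeLa cells (beta-lactamase reporter under heat shock response elements) were exposed to compounds for 5 h at 37 C, then loaded with LiveBLAzer B/G FRET substrate for 2.5 h at room temperature before fluorescence reading.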

[12] = qHTS assay to identify small molecule that activate the aryl hydrocarbon receptor (AhR) signaling pathway - cell viability counter screen (AID 743086); further: potency means the concentration at half of the fitted maximal effect; nearly all actives have a fitted effect of over 45% in size
Outline: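 HepG2-AhR-luc (HG2L7.5c1) cells, 4000/well, were preincubated 5 h at 37C, exposed to compound in qHTS format for 24 hr at 37C, then given CellTiter-Fluor for 30 min; viability was read as fluorescence in the reporter wells.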

[13] = biological target: Peroxisome proliferator-activated receptor gamma (Homo sapiens) (UniProt P37231); test: qHTS assay to identify small molecule agonists of the peroxisome proliferator-activated receptor gamma (PPARg) signaling pathway (AID 743094; active means well fitted activation curve with a large enough effect in the signal ratio in the repeat runs, not every such curve was filed as active; inconclusive means weak or mixed curves, or effect the other way; inactive means no such curve, though single readings can be large or run the other way; the % refers to the signal ratio; further: potency means the concentration at half of the fitted maximal effect); details: HEK293H PPARg-UAS-bla, beta-lactamase FRET ratio, 17 h; activation: at 57 µM (top of the series) unless noted
Outline: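 Quantitative HTS agonist mode: stable HEK293H line with UAS-beta-lactamase reporter under PPARg control, 17 h compound exposure at 37C, fluorescence after 1 h FRET substrate loading at room temperature.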

[14] = qHTS assay to identify small molecule antagonists of the peroxisome proliferator-activated receptor gamma (PPARg) signaling pathway - cell viability counter screen (AID 743194); details: PPARg-bla HEK293H viability, CellTiter-Glo luminescence, 17 h, co-treated with 50 nM rosiglitazone; activity change, negative = cytotoxicity: at 62.6 µM (top of the series) unless noted; further: potency means the concentration at half of the fitted maximal effect; nearly all actives have a fitted effect of over 55% in size
Outline: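 PPARg-UAS-bla HEK293H cells were plated, rested 5 h at 37 C, then treated with compounds plus rosiglitazone (50 nM final) for 17 h at 37 C; viability was then read by CellTiter-Glo luminescence after 30 min at room temperature.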

[15] = qHTS assay for small molecule agonists of the antioxidant response element (ARE) signaling pathway - cell viability counter screen (AID 743203; calls by dose curve; further: potency means the concentration at half of the fitted maximal effect; nearly all actives have a fitted effect of over 55% in size); details: ARE-bla HepG2 viability, CellTiter-Glo luminescence, 16 h; viability change, negative = cytotoxic: at 73.3 µM (top of the series)
Outline: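 Seeded at 2,000 cells/well, ARE-bla HepG2 cells were incubated 5 hrs before compound addition. After 16 hrs of treatment at 37C with 5% CO2, CellTiter-Glo reagent was added and luminescence read 30 min later.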

[16] = biological target: Peroxisome proliferator-activated receptor delta (Homo sapiens) (UniProt Q03181); test: qHTS assay to identify small molecule agonists of the peroxisome proliferator-activated receptor delta (PPARd) signaling pathway (AID 743212; calls by dose curve; further: on the % scale 0 is the no-effect control and ±100 the full control effect); details: HEK293H PPARd-UAS-bla, beta-lactamase FRET ratio, 17 h; activation: at 62.6 µM (top of the series) unless noted
Outline: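 GeneBLAzer PPARd UAS-bla HEK293H cells (beta-lactamase reporter under UAS control), plated and rested 5 h at 37 C, then exposed to compounds in DMSO at 37 C; LiveBLAzer B/G FRET substrate added, 2 h room temperature, fluorescence read.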

[17] = biological target: Bile acid receptor (Homo sapiens) (UniProt Q96RI1); test: qHTS assay to identify small molecule antagonists of the farnesoid-X-receptor (FXR) signaling pathway (AID 743217; active means well fitted inhibition curve with a large enough effect in the signal ratio in the repeat runs, not every such curve was filed as active; inconclusive means weak or mixed curves, or effect the other way; inactive means no such curve, though single readings can be large or run the other way; the % refers to the signal ratio; further: potency means the concentration at half of the fitted maximal effect); details: HEK293T FXR-UAS-bla, beta-lactamase ratio, CDCA-stimulated, 16 h; activity change, negative = inhibition: at 62.6 µM (top of the series) unless noted
Outline: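 Antagonist mode against 50 uM (final) chenodeoxycholic acid stimulation in FXR-bla HEK 293T cells, 16 h at 37 °C. Inhibition detected as reduced beta-lactamase activity via LiveBLAzer B/G FRET fluorescence after 2 h at room temperature.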

[18] = qHTS assay to identify small molecule agonists of the farnesoid-X-receptor (FXR) signaling pathway - cell viability counter screen (AID 743218); details: FXR-bla HEK293T viability, CellTiter-Glo luminescence, 16 h; viability change, negative = cytotoxic: at 62.6 µM (top of the series) unless noted; further: potency means the concentration at half of the fitted maximal effect; nearly all actives have a fitted effect of over 45% in size
Outline: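 Cytotoxicity counter-screen run in parallel, same wells: FXR-UAS-bla HEK 293T cells dosed 16 h at 37 C, viability read by CellTiter-Glo luminescence after 30 min at room temperature.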
Tags describe the fitted curve by direction and shape or compound fluorescence and quenching.

## COc1cc(C)nc(-n2nc(C)cc2OC)n1
[1]
  Potency: inconclusive: 11.4 µM [activator, partial curve, poor fit]
[2]
  ratio activity, negative = inhibition: inconclusive: 17.7%
[3]
  Potency: inactive
[4]
  Potency: inconclusive: 33.5 µM [activator, single point]

## CC(C)COC(=O)c1ccc(N)cc1
[1]
  Potency: inconclusive: 26.6 µM [activator, partial curve]
[5]
  Potency: inconclusive: 5.96 µM [cytotoxic, single point]
[6]
  ratio activity, negative = inhibition: inconclusive: 1.91%

## CC(=O)N/N=C/c1ccc([N+](=O)[O-])o1
[1]
  Potency: inconclusive: 33.5 µM [activator, partial curve, poor fit]
[2]
  ratio activity, negative = inhibition: inconclusive: 9.21%
[7]
  Potency: inconclusive: 33.5 µM [cytotoxic, single point]
[5]
  Potency: inactive

## Nc1nc2ccccc2[nH]1
[1]
  Potency: inconclusive: 30.7 µM [activator, partial curve] and inconclusive: 38.1 µM [activator, partial curve]
[3]
  Potency: inactive

## Nc1nc(N)nc(-c2ccccc2)n1
[1]
  Potency: inconclusive: 9.6 µM [activator, full curve, poor fit] and inconclusive: 24.3 µM [activator, partial curve, poor fit]
[2]
  Potency: inactive
[8]
  Potency: inactive

## CC(C)(C)c1ccc(C(=O)O)cc1
[1]
  Potency: inconclusive: 68.6 µM [activator, single point]
[5]
  Potency: inactive
[9]
  activity change, negative = inhibition: inconclusive: 16.5%

## CCOC(=O)c1ccc(OCCN2C[C@H](O)[C@@H](O)[C@H](O)[C@H]2CO)cc1
[1]
  Potency: inactive
[10]
  Potency: inactive
[9]
  Potency: inactive

## COC(=O)c1ccc(O)cc1
[1]
  Potency: inconclusive: 69.3 µM [activator]
[7]
  Potency: inactive
[11]
  Potency: inconclusive: 33.5 µM [activator]
[5]
  Potency: inconclusive: 0.197 µM [cytotoxic, single point]
[6]
  Potency: inactive
[9]
  activity change, negative = inhibition: inconclusive: 2.97% [at 78.8 µM]

## NC(=O)c1nc(-c2cccc(-c3cc(F)ccc3OCC(F)(F)C(F)(F)F)c2)n[nH]1
[12]
  Potency: inconclusive: 54.5 µM
[13]
  Potency: inconclusive: 61.6 µM
[2]
  Potency: inconclusive: 11 µM
[14]
  Potency: inconclusive: 61.6 µM [cytotoxic, partial curve, poor fit]
[3]
  Potency: inconclusive: 54.5 µM [falling, partial curve]
[15]
  Potency: inconclusive: 68.6 µM [cytotoxic]
[7]
  Potency: inconclusive: 54.9 µM [cytotoxic, single point]
[16]
  activation: inconclusive: 11.2%
[5]
  Potency: inconclusive: 61.6 µM [cytotoxic]
[6]
  Potency: active: 54.9 µM
[17]
  Potency: inconclusive: 54.9 µM
[18]
  Potency: inconclusive: 61.6 µM [cytotoxic, single point]
[10]
  Potency: inconclusive: 61.6 µM [falling, single point]
[9]
  Potency: inconclusive: 54.9 µM

## CC(CCc1ccc2c(c1)OCO2)NN (centres undefined)
[1]
  Potency: inconclusive: 33.5 µM [activator, single point]
[3]
  activation: inconclusive: 17.7%
[6]
  Potency: inactive

## NC(=S)NC(N)=S
[1]
  Potency: inactive
[11]
  Potency: active: 34.7 µM

## Cc1cc(C2(c3cc(C)c(O)cc3C)OS(=O)(=O)c3ccccc32)c(C)cc1O
[1]
  Potency: active: 30.6 µM
[3]
  activation: inconclusive: 11.1%
